# Measured values taken from article PMC4336329 (PLoS ONE, 2015).
# Out of some 310,000 compounds screened, about 2,200 (0.71%) showed an effect of 50% or more. Effects have a minus sign here. This is one part of the list.
# Biological target: human ether-à-go-go-related gene (hERG) potassium channel (human, UniProt Q12809)
# Assay: primary screen, population patch clamp on CHO cells stably expressing hERG
# human ether-à-go-go-related gene (hERG) potassium channel, sequence (Q12809 whole entry, looked up): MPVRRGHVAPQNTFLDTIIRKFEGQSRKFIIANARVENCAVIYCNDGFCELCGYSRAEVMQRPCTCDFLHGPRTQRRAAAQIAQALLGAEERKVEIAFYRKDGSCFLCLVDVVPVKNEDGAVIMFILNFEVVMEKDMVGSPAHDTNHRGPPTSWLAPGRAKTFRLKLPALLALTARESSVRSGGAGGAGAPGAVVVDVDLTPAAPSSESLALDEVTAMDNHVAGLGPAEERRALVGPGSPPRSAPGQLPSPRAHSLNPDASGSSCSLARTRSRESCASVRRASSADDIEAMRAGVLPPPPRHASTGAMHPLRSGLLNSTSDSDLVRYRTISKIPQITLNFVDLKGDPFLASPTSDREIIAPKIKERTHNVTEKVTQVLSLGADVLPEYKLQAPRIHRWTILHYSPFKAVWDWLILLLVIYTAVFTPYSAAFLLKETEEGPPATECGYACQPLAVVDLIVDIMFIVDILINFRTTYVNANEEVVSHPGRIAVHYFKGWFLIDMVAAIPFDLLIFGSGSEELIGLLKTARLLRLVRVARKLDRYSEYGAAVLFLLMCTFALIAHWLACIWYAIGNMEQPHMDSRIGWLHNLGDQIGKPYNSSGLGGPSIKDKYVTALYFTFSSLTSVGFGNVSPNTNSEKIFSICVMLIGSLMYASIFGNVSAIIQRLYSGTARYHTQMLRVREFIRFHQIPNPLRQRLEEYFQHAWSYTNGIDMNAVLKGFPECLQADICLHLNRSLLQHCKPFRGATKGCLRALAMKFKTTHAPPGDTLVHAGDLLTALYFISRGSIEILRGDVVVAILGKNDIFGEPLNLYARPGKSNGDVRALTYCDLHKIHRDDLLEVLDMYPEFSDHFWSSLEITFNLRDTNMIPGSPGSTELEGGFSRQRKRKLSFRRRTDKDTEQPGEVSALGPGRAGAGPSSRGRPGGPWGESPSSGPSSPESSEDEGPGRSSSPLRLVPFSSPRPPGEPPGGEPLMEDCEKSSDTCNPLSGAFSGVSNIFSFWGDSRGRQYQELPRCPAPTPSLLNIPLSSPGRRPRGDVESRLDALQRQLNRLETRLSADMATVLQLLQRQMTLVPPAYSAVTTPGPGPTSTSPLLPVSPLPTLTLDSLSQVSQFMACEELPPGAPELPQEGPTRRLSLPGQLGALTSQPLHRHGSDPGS
row,SMILES,"hERG current change (%, negative = inhibition) at 1uM [%]"
1,Cc1nc2ccc(NC(=O)c3ccc(Cl)nc3)cc2s1,-0.369
2,CCCCc1nc2ccc(S(=O)(=O)O)cc2[nH]1,1.3
3,C/C(=C\c1ccccc1F)C1Nc2cccc3cccc(c23)N1,19.8
4,Cc1cc([N+](=O)[O-])ccc1-c1ccc(/C=N/NC(=O)Cc2ccccc2)o1,4.48
5,COc1ccc(/C=C2\SC(=S)N(C(C(=O)O)c3ccccc3)C2=O)c(OC)c1 (stereo not drawn),11.7
6,CN1CCN(C(CNC(=O)C(=O)NC2CCCCC2)c2ccc(F)cc2)CC1 (stereo not drawn),3.69
7,Cc1ccc2ccccc2[n+]1CCCS(=O)(=O)[O-],14.9
8,O=C(NC1CCCCC1)N(Cc1cc2cc3c(cc2[nH]c1=O)OCCO3)CC1CCCO1 (stereo not drawn),1.55
9,Cc1cccc2cc(CNC3CCCC3)c(Cl)nc12,10.3
10,CN1C2CCC1CC(=NO)C2,8.07
11,COc1cc(/C=N/NC(=O)c2ccoc2C)ccc1OCCN1CCCCC1,3.72
12,Cc1nnc(SCC2=C(C(=O)O)N3C(=O)C(NC(=O)c4cccc(F)c4F)C3SC2)s1 (stereo not drawn),11.7
13,CSc1ncccc1C(=O)OCC(=O)NC1CCCCC1,2.84
14,O=S(=O)(Nc1ccc2c3c(cccc13)CC2)c1ccc(F)cc1,-1.87
15,Cc1c(C(=O)NCc2ccccn2)oc2ccc(S(=O)(=O)N3CCOCC3)cc12,7.58
16,Cc1ccc(-n2[nH]c(C)c(CCC#N)c2=O)cc1,2.81
17,N/C(=N\OC(=O)c1ccccc1)c1cccnc1,20.7
18,CC(=O)c1c(C)[nH]c(C(=O)N2CCc3ccccc32)c1C,10.9
19,COc1ccccc1OCc1nnc(SCC(=O)Nc2nnc(C3CC3)s2)n1C,15.6
20,Cl.O=C(NCCN1CCOCC1)c1cc2ccccc2o1,7.43
21,O=[N+]([O-])c1ccc(S(=O)(=O)Nc2ccc(-c3csc(-c4ccccc4)n3)cc2)cc1,14.4
22,CC1CCCC(NC(=O)c2cccc(S(=O)(=O)NCc3ccccc3)c2)C1C (stereo not drawn),2.99

row,SMILES,"hERG current change (%, negative = inhibition) at 1uM [%]"
1,Cc1ccc(-n2nnnc2CNC(=O)c2ccc3c(c2)OCO3)cc1C,7.46
2,O=C(Nc1ccc2c(c1)OCO2)C1CC(c2cccc(Br)c2)=NO1 (stereo not drawn),3.89
3,Cn1c(CSCc2ccccc2)nnc1SCC(=O)Nc1ccc(C(=O)O)cc1,5.37
4,CCOc1ccc(NC(=O)COc2ccccc2C(=O)NCc2ccccc2)cc1,4.09
5,CC(C)CN1C(=O)/C(=C(/C#N)C(=O)NC2CCCCC2)c2ccccc21,5.21
6,Cc1ccccc1OCC(=O)Nc1ccc2[nH]ncc2c1,9.13
7,CN1C(=O)c2ccc(C(=O)NCc3ccc4c(c3)OCO4)cc2C1=O,5.56
8,CCOc1ccc(CCNC(=O)C2CC(C)=CCC2C(=O)O)cc1OCC (stereo not drawn),20.8
9,COc1ccc(C(C(=O)NCC2CCCO2)N(C(=O)Cn2nnc3ccccc32)c2ccc(NC(C)=O)cc2)cc1OC (stereo not drawn),17.4
10,Cc1cc(C)c(S(=O)(=O)N2CCCC(C(=O)N3CCOCC3)C2)c(C)c1 (stereo not drawn),13.1
11,CCOC(=O)Cc1cc(=O)n2[nH]cc(-c3cccc(Br)c3)c2n1,23.7
12,CCOc1ccccc1NS(=O)(=O)c1ccc2[nH]c(=O)ccc2c1,3.38
13,COc1ccccc1C(=O)Nc1ccc(S(=O)(=O)N(C)c2ccccc2)cc1,11
14,CCCCCc1ccc(CC(=O)Nn2c(C)nc3ccccc3c2=O)cc1,-5.15
15,CC12CC3CC(C)(C1)CC(C(=O)N1CCN(C(=O)C4CCCO4)CC1)(C3)C2 (stereo not drawn),15.8
16,N/C(=N\OC(=O)c1ccc(Cl)cc1)c1nonc1N,16.8
17,CCN1CCN(C(=O)c2ccc3c(c2)N(Cc2ccccc2)C(=O)c2ccccc2S3(=O)=O)CC1,9.06
18,CCOC(=O)c1c(NC(=O)CSc2ncn[nH]2)sc(C(=O)NC)c1C,-2.11
19,CCOc1cc(C(=O)NCC(=O)N/N=C/c2sccc2C)cc(OCC)c1OCC,5.49
20,Cc1cc(NS(=O)(=O)c2ccc(NC(=O)Nc3ccccc3)cc2)no1,-0.609
21,c1ncn(C23CC4CC(CC(C4)C2)C3)n1,16
22,CCN(CC)CCNC(=O)c1ccc2c(=O)n(C3CCCC3)c(=S)[nH]c2c1,-3.59

row,SMILES,"hERG current change (%, negative = inhibition) at 1uM [%]"
1,O=C(COC(=O)c1ccc(S(=O)(=O)NCc2ccco2)cc1)NC1CCCCCC1,11.1
2,O=C(c1ccccc1[N+](=O)[O-])N1CCC2(CC1)OCCO2,11.9
3,Cc1cccc(C(=O)O/N=C(/c2ccccc2)c2ccncc2)c1,9.4
4,O=C(CSc1cccc[n+]1[O-])Nc1cc(S(=O)(=O)N2CCOCC2)ccc1N1CCOCC1,14.1
5,CCC(=O)N1CCN(c2ccccc2NC(=O)COc2ccc(C(C)C)cc2)CC1,-0.267
6,CCCOc1ccc(OCCNC2CCCC2)cc1,-2.94
7,C=C1CCN([C@@H](CC(C)C)C(=O)NCc2cc(OC)c(OC)c(OC)c2)S(=O)(=O)c2ccccc21,13.9
8,Cc1ccc(NS(=O)(=O)c2c(C(=O)N3CCOCC3)c(C)n(C)c2C)cc1,14.8
9,COc1ccc(C2=NOC(C(=O)Nc3cc(C)on3)C2)cc1 (stereo not drawn),4.59
10,COc1ccc(OC)c(-n2c(SCC(=O)NCc3ccco3)nnc2-c2c[nH]c3ccccc23)c1,5.16
11,O=C1C2Sc3[nH]c(=O)sc3C(c3ccccc3)C2C(=O)N1c1ccccc1 (stereo not drawn),-4.02
12,CCc1ccc(-c2nc(NC(=O)c3ccc(OCC(=O)Nc4ccc(F)cc4)c(OC)c3)sc2C)cc1,3.65
13,CN(Cc1ccccc1)C(=O)c1nc2ccccn2c1CN1CCc2sccc2C1,-1.49
14,Cc1cc(C)n(C2CC(=O)N(c3ccc(Cl)c(Cl)c3)C2=O)n1 (stereo not drawn),9.03
15,COc1ccc(Cc2noc(CN(C)CC(O)c3ccccc3)n2)cc1OC (stereo not drawn),10.3
16,COc1ccc(CCNC(=O)COC(=O)c2ccco2)cc1OC,20.4
17,C=CCn1cc(C(=O)N2CCc3ccccc3C2)c(=O)c2cc(S(=O)(=O)N(CC)CC)ccc21,-5.88
18,COc1cccc(NC(=O)[C@@H]2CCC(=O)N2C2OC(=O)c3ccccc32)c1 (stereo partly drawn),9.92
19,COc1cccc(N2CCN(C(=O)c3ccccc3SCC(=O)NCc3ccco3)CC2)c1,11.1
20,CCn1c(SCC(=O)Nc2ccccc2C(=O)OC)nnc1-c1cccc(C)c1,-12.2
21,OC1CCN(Cc2cn(Cc3ccccc3)nc2-c2cc3ccccc3o2)CC1,-18.4
22,CCOC(=O)Cc1csc(NC(=O)COc2ccc3c(c2)CCC3)n1,10.9

row,SMILES,"hERG current change (%, negative = inhibition) at 1uM [%]"
1,Cn1c(CC(=O)Nc2ccccc2F)nnc1SCC(=O)N1CCOCC1,5.22
2,N/C(=N\OC(=O)c1ccc2ccccc2c1)c1ccccn1,17.8
3,Cc1ccc(NC(=O)C2CSC3(C)CCC(=O)N23)cc1S(=O)(=O)N1CCOCC1 (stereo not drawn),12.2
4,COCc1nc(-c2cc(Br)ccc2OC)no1,-1.29
5,O=C(O)C1CSC(c2coc3ccccc3c2=O)N1 (stereo not drawn),12.7
6,Cc1cccc(C(C(=O)NC2CCCCC2)N(Cc2cccnc2)C(=O)c2csnn2)c1 (stereo not drawn),2.52
7,Cc1cnc(NC(=O)CSc2ncn(-c3ccccc3)n2)s1,-1.75
8,COc1ccc(C2=NS(=O)(=O)N(C)C(C(=O)NCc3cccs3)=C2)cc1OC,-9.42
9,Cc1ccc(CNC(=O)C2CCCN2S(=O)(=O)c2ccc(F)cc2)cc1 (stereo not drawn),13.4
10,CCOC(=O)c1ccc(N2C(=O)CC(C3CCCO3)C2=O)cc1 (stereo not drawn),1.92
11,CC1CCC(NC(=O)C2CCC(CNS(=O)(=O)c3ccccc3)CC2)CC1 (stereo not drawn),15.5
12,CNc1ccccc1C(C)(C)c1cc(-c2ccco2)n[nH]1,2.35
13,COc1cc(Cl)c(C)cc1NC(=O)CC1CCCC1,8.04
14,CS(=O)(=O)c1ccc(-c2cccc(NC(=O)COc3ccc(Cl)cc3)c2)nn1,10.7
15,Cc1ccc(S(=O)(=O)N2CCC(C(=O)OCC(=O)N(C)C3CCCCC3)CC2)cc1C,17.9
16,O=C(Nc1ccc(F)cc1)C1C(c2ccccc2)C1(Cl)Cl (stereo not drawn),9.41
17,CS(=O)(=O)Nc1ccc(C2=NN(C(=O)C3CCCCC3)C(c3cccs3)C2)cc1 (stereo not drawn),0.239
18,CCOc1cc(C2C(C(=O)OC(C)C)=C(C)NC3=C2C(=O)CCC3)cc([N+](=O)[O-])c1O (stereo not drawn),17.7
19,Cc1ccc2nc(N(CCN(C)C)C(=O)c3ccc4ccccc4c3)sc2c1.Cl,15.2
20,CCOC(=O)CC(NS(=O)(=O)Cc1ccccc1)c1ccc(C)cc1 (stereo not drawn),6.98
21,CC(OC(=O)c1ccc(Cl)nc1)C(=O)N1CCc2ccccc21 (stereo not drawn),9.88
